The results in this text go back to the supplement of paper PMC10126150.

This data set has as its system ATP. Nature of the data set: switch fluorescence ratio, 500 uM ATP over buffer (Cy3 cluster intensity, sum of 5 cycles each) (fold (ratio)); higher = stronger signal-on switching upon ATP binding; sequences stand for … in TCGTCGGCAGCGTCAGATGTGTATAAGAGACAGTTTTTTTTTTTTTTTTTTTTTTTTT…TC. As to conditions: aptamer strand: ATP DNA aptamer (quencher-CACCTGGGGGAGTATTGCGGAGGAAGG + anchor), 100 nM annealed; ATP concentration: 500 uM; one replicate. Put shortly: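 For every switch-domain sequence, the fluorescence ratio is the mean of per-cluster values, each being summed target-cycle Cy3 intensity over summed buffer-cycle Cy3 intensity. Clusters outside 100-1000 RFU were excluded. On a modified Illumina MiSeq flow-cell, the Cy3-labelled switching-strand clusters were annealed to 100 nM quencher-labelled ATP aptamer, imaged in selection buffer and then after 15 min with 500 uM ATP at 22 °C. Five such cycles were run, with NaOH stripping and re-annealing between them.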

Sequences with one replicate were seen in a single cluster, so their values are uncertain.
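Further: ATP exposure 15 min at 22 °C before imaging.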

As to TAGTGATGGA, the switch fluorescence ratio worked out at 1.01.
Regarding CGCTGTGGTA, the switch fluorescence ratio is 0.995.
Next, ATTCGGCAGA: 0.96.
Consider GTGTAAGGTC, for which the switch fluorescence ratio came out at 1.02.
CACGGGATG: the switch fluorescence ratio turned out to be 1.03.
CAAGCGATGT: the switch fluorescence ratio was 1.09.
As for AGTTTAGAGA, the switch fluorescence ratio amounted to 1.01.
With GTGTTTATGT, the switch fluorescence ratio was 0.998.
Next, ACTGGGCAGC: 1.08.
Next, CGACGATGTA: 1.13; GGTCGTCATT: 1.02; GATACGGGTA: 1.15.
Next, TAATAGCGTT: 0.99; CGAAGGGGGC: 0.942; CGATTTAGAC: 1.05.
CCCGCGGAGT: the switch fluorescence ratio came to 1.13.
Next, CAATGCAACG: 1.02.
Regarding GAAGACTAGT, the switch fluorescence ratio turned out to be 0.988.
Next, AACTCCCGTG: 1.38.
With CGATACGTCT, the switch fluorescence ratio amounted to 1.58.
Next, GGAGCAGGGT: 1.1.
Next, GCTACAATTA: 1.01; ACATAAGTAA: 1.03; TGCATCATCT: 1.02.
Next, AAACGAAAGT: 1.01; ATTCATTAG: 0.962.
Regarding GTGATTAGAT, the switch fluorescence ratio is 0.971.
Next, GCGTCCTCTT: 0.97; AGACGGGTGT: 1.03; GTCGGCAGGC: 1.06.
Next, CGGACTTGGA: 1.05; TGCCGCTGGA: 1.02.
Next, ATGTAATACA: 0.968.
For AGTTATCTA, the switch fluorescence ratio amounted to 1.03.
For CAATTGGAGT, the switch fluorescence ratio worked out at 0.992.
Next, TGAAGGATTG: 0.954; TGGTCCGGTT: 1; CAGGATCTGG: 1.01.
In the case of TATAGTAGCC, the switch fluorescence ratio worked out at 1.
For the sequence TAACTGTTGG, the switch fluorescence ratio is 0.996.
Next, GAGCGCCGTG: 1.13; TACGGGGCAA: 1.33.
Take AATACAGTTG: the switch fluorescence ratio was found to be 0.995.
Next, AATACAAACT: 1.14; GCCTAGGATG: 0.998; ACAACGAACG: 1.2.
Next, TATAAATATA: 0.964; AGGCGTAGGT: 0.983.
Next, ACTACTAT: 1.08; TGGAGACGAG: 1.01.
Take AAACGCGCTG: the switch fluorescence ratio was 1.02.
Next, ATATTACCAT: 1.03; TTTGAAAAAT: 1.01.
Next, CTTCGAAATT: 1.01; CTGCCATCTC: 1.22; AGCTGTCTGA: 0.984.
Next, GTCGACAGT: 1.01.
As to TCTGTTGGAG, the switch fluorescence ratio came to 0.995.
For CTCATTCAAA, the switch fluorescence ratio was found to be 1.
Next, ATTACGAAC: 1.38.
Consider TGTTACTGCA, for which the switch fluorescence ratio was determined as 1.14.
Next, CAGTGGCACG: 1; CTAACCCGGA: 0.986.
Next, ATGGATAAGT: 0.97; GACTCAGCCC: 1.33.
Next, TCCTATAAGC: 1.08.
Turning to TAACTAACAA, the switch fluorescence ratio worked out at 1.05.
Next, CGGACACACC: 1.88.
In the case of CACAGTGTGT, the switch fluorescence ratio is 1.06.
Next, GTGGAATGCA: 0.98; TCTAACGGGT: 0.993.
Next, TCAATG: 0.993.
Next, CAGAGTCCC: 0.952; GTCGGGGAGT: 0.97; GAACGAGGTC: 0.957.
Turning to GAAAGGAATA, the switch fluorescence ratio worked out at 1.06.
Next, GGTCGTGCAA: 1.05.
Next, ATATTCAATT: 0.99.
TAAGCATAGT: the switch fluorescence ratio was determined as 1.03.
Next, ACACAGTTCC: 1.08; GGGTAACGG: 1.05.
Next, CCTTGTGGGT: 1.24.
Next, TAAGTTATGC: 1.04.
Turning to ATGGAGCCCC, the switch fluorescence ratio worked out at 1.
Next, AGTTGTTTAA: 1.23.
Next, AAGGAAAGTG: 0.995; TTAATACCCA: 2.36; CATCGGTCAT: 1.08.
As for AATCTGAGCA, the switch fluorescence ratio is 1.04.
Next, GGGCTATTGT: 1.34.
Next, TGCAGTTTTG: 0.981; ATCATTATCC: 0.988.
Next, TGACTGGGT: 0.983.
Turning to TTAACTAGCC, the switch fluorescence ratio was determined as 1.02.
Next, CTAGACATT: 0.993.
Regarding AGCACACGAC, the switch fluorescence ratio stood at 2.43.
As to GTCCATTAAG, the switch fluorescence ratio amounted to 1.02.
Next, TTTGTGACTG: 1.05; TTGAGCCAGT: 1.06.
Next, CTGAGTCAGG: 1.02.
Next, ATCTGTACTG: 0.941; TAATTTTCAT: 1.01.
TAGTCGGTCG: the switch fluorescence ratio turned out to be 1.02.
Next, ATACTACACT: 1.33; TTTTCGCAAT: 6.63.
In the case of TCAGAAAGAG, the switch fluorescence ratio stood at 1.05.
For ACGAGAATGG, the switch fluorescence ratio turned out to be 1.05.
For CATTGAAGG, the switch fluorescence ratio was 0.99.
Regarding AGTATTCGCA, the switch fluorescence ratio was determined as 1.01.
Next, CCTTGGATC: 0.994; TTATCGCTAC: 2.83.
Next, ACGCACTAAT: 1.4; AGACCGCTTT: 1.
For the sequence GATCTATAAT, the switch fluorescence ratio came out at 1.04.
Next, GGCGTCGGG: 1.04.
Next, CATAGCAATG: 3.42; GCATTAACGG: 1.04; TACGGCACGT: 1.01.
Next, TAGGTAGGT: 1.01.
For GGATCGGGTG, the switch fluorescence ratio was 1.02.
